{
  "source": "the supplement of paper PMC4604168 (melanoma cell lines)",
  "note": "This is one part of the list. Most values come without repeats; read them as rough.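 Further: cell number obtained by counting DAPI-stained nuclei in high-throughput microscope images with image analysis software, screen run in 1,536-well plates.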",
  "data": [
    {"system": "RVH-421", "assay": "cell count relative to DMSO control; melanoma cells; higher = more viable cells", "conditions": "library dose: low library concentration; 72 h", "units": {"cell count": "%"}, "values": [
      {"smiles": "CC(C)C[C@H](NC(=O)[C@H](Cc1ccccc1)NC(=O)c1cnccn1)B(O)O", "note": "[Bortezomib] + O=c1cc(-c2cccc3c2Sc2ccccc2S3)oc(N2CCOCC2)c1 [KU55933] (first compound 0.001 µM, partner dose 1 µM)", "cell count": 70.1},
      {"smiles": "COc1ccc(C2=N[C@@H](c3ccc(Cl)cc3)[C@@H](c3ccc(Cl)cc3)N2C(=O)N2CCNC(=O)C2)c(OC(C)C)c1", "note": "[Nutlin-3] + CN(C)S(=O)(=O)c1ccc2c(c1)/C(=C/c1cc3c([nH]1)CCCC3)C(=O)N2 [SU6656] (first compound 0.1 µM, partner dose 0.4 µM)", "cell count": 100},
      {"smiles": "Cc1cc(Nc2cc(N3CCN(C)CC3)nc(/C=C/c3ccccc3)n2)n[nH]1", "note": "+ CCc1ccc(CCOc2ccc(CC3SC(=O)NC3=O)cc2)nc1 [pioglitazone] (first compound 0.04 µM, partner dose 2 µM)", "cell count": 77.6},
      {"smiles": "Cn1c(=O)n(-c2ccc(C(C)(C)C#N)cc2)c2c3cc(-c4cnc5ccccc5c4)ccc3ncc21", "note": "+ O=C(Nc1ccccc1)c1cc([N+](=O)[O-])ccc1Cl [GW9662] (first compound 0.004 µM, partner dose 2 µM)", "cell count": 102},
      {"smiles": "Cc1cn(-c2cc(NC(=O)c3ccc(C)c(Nc4nccc(-c5cccnc5)n4)c3)cc(C(F)(F)F)c2)cn1", "note": "[nilotinib] + COc1cc2c(Oc3ccc4[nH]c(C)cc4c3F)ncnc2cc1OCCCN1CCCC1 [cediranib] (first compound 0.2 µM, partner dose 0.4 µM)", "cell count": 98.3},
      {"smiles": "Cc1cc(Nc2cc(N3CCN(C)CC3)nc(/C=C/c3ccccc3)n2)n[nH]1", "note": "+ OCCn1cc(-c2cnc3nnn(Cc4ccc5ncccc5c4)c3n2)cn1 [PF04217903] (first compound 0.04 µM, partner dose 1 µM)", "cell count": 92.2},
      {"smiles": "CC(C)C[C@H](NC(=O)[C@H](Cc1ccccc1)NC(=O)c1cnccn1)B(O)O", "note": "[Bortezomib] + NCC(=O)Nc1ccc(-n2nc(C(F)(F)F)cc2-c2ccc3c(ccc4ccccc43)c2)cc1 [OSU03012] (first compound 0.001 µM, partner dose 1 µM)", "cell count": 113},
      {"smiles": "Cn1c(=O)n(-c2ccc(C(C)(C)C#N)cc2)c2c3cc(-c4cnc5ccccc5c4)ccc3ncc21", "note": "+ COc1cc(Nc2ncc(F)c(Nc3ccc4c(n3)NC(=O)C(C)(C)O4)n2)cc(OC)c1OC [Tamatinib] (first compound 0.004 µM, partner dose 0.4 µM)", "cell count": 99.7},
      {"smiles": "COc1ccc(C2=N[C@@H](c3ccc(Cl)cc3)[C@@H](c3ccc(Cl)cc3)N2C(=O)N2CCNC(=O)C2)c(OC(C)C)c1", "note": "[Nutlin-3] + CCN(CC)CCCCNc1ncc2cc(-c3cc(OC)cc(OC)c3)c(NC(=O)NC(C)(C)C)nc2n1 [PD173074] (first compound 0.1 µM, partner dose 0.1 µM)", "cell count": 74.1},
      {"smiles": "CC(C)C[C@H](NC(=O)[C@H](Cc1ccccc1)NC(=O)c1cnccn1)B(O)O", "note": "[Bortezomib] + CN(C)S(=O)(=O)c1ccc2c(c1)/C(=C/c1cc3c([nH]1)CCCC3)C(=O)N2 [SU6656] (first compound 0.001 µM, partner dose 0.4 µM)", "cell count": 92.5},
      {"smiles": "Cc1cn(-c2cc(NC(=O)c3ccc(C)c(Nc4nccc(-c5cccnc5)n4)c3)cc(C(F)(F)F)c2)cn1", "note": "[nilotinib] + COc1ccc(COc2ccc(Cc3cnc(N)nc3N)cc2OC)cc1 [GW2580] (first compound 0.2 µM, partner dose 1 µM)", "cell count": 119},
      {"smiles": "CC(C)C[C@H](NC(=O)[C@H](Cc1ccccc1)NC(=O)c1cnccn1)B(O)O", "note": "[Bortezomib] + Oc1cc(-c2nc(-c3ccccc3)[nH]c2-c2ccncc2)ccc1Cl [L779450] (first compound 0.001 µM, partner dose 0.2 µM)", "cell count": 60.4},
      {"smiles": "CC(C)C[C@H](NC(=O)[C@H](Cc1ccccc1)NC(=O)c1cnccn1)B(O)O", "note": "[Bortezomib] + Cc1cc(N2CCOCC2)cc2[nH]c(-c3c(NC[C@@H](O)c4cccc(Cl)c4)cc[nH]c3=O)nc12 [BMS536924] (first compound 0.001 µM, partner dose 0.2 µM)", "cell count": 67.3},
      {"smiles": "Cn1c(=O)n(-c2ccc(C(C)(C)C#N)cc2)c2c3cc(-c4cnc5ccccc5c4)ccc3ncc21", "note": "+ COc1cc2c(Oc3ccc4[nH]c(C)cc4c3F)ncnc2cc1OCCCN1CCCC1 [cediranib] (first compound 0.004 µM, partner dose 0.4 µM)", "cell count": 95.4}
    ]}
  ]
}
